Among all 110,000 compounds or so, about 230 (0.21%) showed an effect of 50% or more. The list shows a part of the results.
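Further: 30 min substrate incubation versus DMSO and 10 µM JCP410 controls.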

In the assay the target is DPAP1 (Plasmodium falciparum, UniProt Q8IIJ9). As to the kind of experiment: primary screen, percent inhibition; read by cleavage of a fluorogenic dipeptide substrate; higher = more effect of the substance. The arrangement: species or system P. falciparum D10 trophozoite lysates; single well.
DPAP1, sequence (Q8IIJ9 whole entry, looked up): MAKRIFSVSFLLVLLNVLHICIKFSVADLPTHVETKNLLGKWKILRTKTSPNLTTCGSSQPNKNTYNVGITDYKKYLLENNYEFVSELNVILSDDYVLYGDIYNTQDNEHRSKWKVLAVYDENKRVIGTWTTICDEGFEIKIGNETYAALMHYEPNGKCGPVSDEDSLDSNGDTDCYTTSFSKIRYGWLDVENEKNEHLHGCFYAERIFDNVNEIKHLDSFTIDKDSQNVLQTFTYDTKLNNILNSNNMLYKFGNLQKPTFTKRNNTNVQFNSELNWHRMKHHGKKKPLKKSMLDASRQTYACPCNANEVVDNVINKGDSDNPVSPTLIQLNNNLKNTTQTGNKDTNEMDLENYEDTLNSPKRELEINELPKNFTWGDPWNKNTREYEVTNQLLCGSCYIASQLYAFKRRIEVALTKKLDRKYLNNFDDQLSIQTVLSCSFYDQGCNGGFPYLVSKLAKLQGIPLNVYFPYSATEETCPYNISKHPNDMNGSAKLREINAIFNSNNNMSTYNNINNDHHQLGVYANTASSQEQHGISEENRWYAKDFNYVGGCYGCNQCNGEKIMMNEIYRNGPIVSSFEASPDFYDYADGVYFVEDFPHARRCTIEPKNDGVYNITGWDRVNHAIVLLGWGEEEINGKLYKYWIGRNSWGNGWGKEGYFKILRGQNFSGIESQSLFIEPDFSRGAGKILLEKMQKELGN
With `N#Cc1c(N)c2c(c(O)c1C#N)C(=O)c1ccccc1C2=O`, the “% Inhibition @ 10 uM” value is 1.08%.

On to `COc1cc2c(cc1OC)CN(Cc1cccnc1)CC2`, for which the “% Inhibition @ 10 uM” value is 4.04%.

Take `Cc1ccc(NC(=O)C(C)Oc2ccccc2)cc1` (centres unmarked): the “% Inhibition @ 10 uM” value was 2.64%.

With `CC(C)Oc1ccccc1C1CC(=O)NC2=C1C(=O)CC(C)(C)C2` (centres unmarked), the “% Inhibition @ 10 uM” value is on record as -3.87%.

Consider `Cc1cccc(C[C@@H](NC(=O)OCc2ccccc2)C(=O)NCC#N)c1`, for which the “% Inhibition @ 10 uM” value is recorded as -6.56%.

Turning to `Cc1cc(N2C(=O)c3ccc(C(=O)N4CCCCCC4)cc3C2=O)no1`, the “% Inhibition @ 10 uM” value turned out to be 0.868%.

For the compound `CCOc1ccc(/C=C2\Cc3ccccc3C2=O)cc1`, the “% Inhibition @ 10 uM” value came to 5.5%.

Turning to `NC(=O)c1ccc(NC(=O)c2ccccc2C(=O)O)cc1`, the “% Inhibition @ 10 uM” value was -2.03%.

For the compound `CCCS(=O)(=O)N1CCCC(C(=O)NCCCN(Cc2ccccc2)C(C)C)C1` (centres unmarked), the “% Inhibition @ 10 uM” value was determined as 3.24%.

As for `Cc1ccc(OCCn2c(SCC(N)=O)nc3ccccc32)cc1`, the “% Inhibition @ 10 uM” value was found to be 4.1%.

For the compound `CCCCC1(C)NC(=S)N(c2ccccc2)N1` (centres unmarked), the “% Inhibition @ 10 uM” value is 0.0345%.

On to `O=S(=O)(NCCOc1ccc(Cl)cc1)c1ccc2oc3ccccc3c2c1`, for which the “% Inhibition @ 10 uM” value came to 5.3%.

Take `c1ccc(-c2ccc(-c3cn4c5ccccc5n(CCN5CCCCC5)c4n3)cc2)cc1`: the “% Inhibition @ 10 uM” value is listed as 1.27%.

For `O=C(CSc1nc2ccccc2[nH]1)Nc1ccc(Br)c(Cl)c1`, the “% Inhibition @ 10 uM” value was found to be 2.76%.

`CC(C)c1ccc(NC(=O)c2ccc(Br)cc2)cc1`: the “% Inhibition @ 10 uM” value was -3.56%.

Regarding `CSc1cnn(-c2ccccc2)c(=O)c1SC`, the “% Inhibition @ 10 uM” value is listed as 1.83%.

On to `O=C(Nc1cccc(Oc2ccc3c(c2)C(=O)NC3=O)c1)c1ccc(Br)o1`, for which the “% Inhibition @ 10 uM” value is -3.01%.

Consider `Cc1cc(Cl)nc(Cl)c1C(=O)NC(=O)NC(C)(C)C`, for which the “% Inhibition @ 10 uM” value is -0.703%.

In the case of `CC(=O)N1CCN(c2ccc(NCc3ccc4c(c3)OCO4)cc2)CC1`, the “% Inhibition @ 10 uM” value is on record as -0.28%.

On to `COc1ccc(CNC(=O)CC2SC(NC3CCCCC3)=NC2=O)cc1` (centres unmarked), for which the “% Inhibition @ 10 uM” value is on record as 10.8%.

`Cc1n[nH]c(C)c1CCOc1ccc(C(C)C)cc1`: the “% Inhibition @ 10 uM” value is -0.553%.

Regarding `CC(C)c1ccc(-c2nc(O)c3c4c(sc3n2)CCCC4)cc1`, the “% Inhibition @ 10 uM” value was 2.05%.

For `CN(C(=O)CCCN1C(=O)c2ccccc2C1=O)C1CC(C)(C)N(C)C(C)(C)C1`, the “% Inhibition @ 10 uM” value came out at 2.18%.

Turning to `CC(C)(C)c1ccc(S(=O)(=O)NCc2ccccn2)cc1`, the “% Inhibition @ 10 uM” value is 5.03%.

For the compound `Cc1noc(/C=C/c2ccco2)c1S(=O)(=O)N1CCC(C(=O)NCCc2ccccc2)CC1`, the “% Inhibition @ 10 uM” value is given as 2.14%.

For the compound `CCC(Sc1nnc(NC(C)=O)s1)C(=O)NC1=NN=C(c2ccc(C)cc2)CS1` (centres unmarked), the “% Inhibition @ 10 uM” value stood at 4.3%.

Regarding `Cc1nc2c(-c3ccc(F)cc3)c(C)nn2c(C)c1CCC(=O)NCCC(C)C`, the “% Inhibition @ 10 uM” value came out at 2.93%.

In the case of `O=c1oc2c(Cl)cc(Cl)cc2cc1-c1nc(-c2ccc(Cl)cc2)cs1`, the “% Inhibition @ 10 uM” value is 2.4%.

With `CC(C)(C)C(=O)Nc1ccc(C(=O)Nc2ccccc2O)cc1`, the “% Inhibition @ 10 uM” value is on record as -0.216%.

As for `COc1ccc(/C(O)=C/c2nc3ccc(C(=O)NCc4cccc(OC)c4)cc3nc2O)cc1`, the “% Inhibition @ 10 uM” value was found to be 4.05%.

Consider `Cc1ccc(Cn2nc(-c3ccccc3)nc2-c2ccccc2)cc1`, for which the “% Inhibition @ 10 uM” value was -2.18%.

With `CCOc1cc(/C=C/c2cc(C(F)(F)F)nc(O)n2)ccc1O`, the “% Inhibition @ 10 uM” value was -2.48%.

For the compound `COc1ccc(C)cc1N(CC(=O)N(C)Cc1ccccc1)S(C)(=O)=O`, the “% Inhibition @ 10 uM” value is listed as -1.61%.

For `O=C(NCc1ccccc1)c1coc2nc3ccccc3nc12`, the “% Inhibition @ 10 uM” value came to 1.42%.

Regarding `COCCNc1nn2c(=O)c3c4c(sc3nc2c2ccccc12)CC(C)CC4` (centres unmarked), the “% Inhibition @ 10 uM” value is -7.9%.

As for `O=C(c1cc2ccccc2oc1=O)N1CCSC1c1ccc2c3c(cccc13)CC2` (centres unmarked), the “% Inhibition @ 10 uM” value is 23.4%.

Take `Cc1cc(-c2ccc(C)c(S(=O)(=O)N3CCOCC3)c2)on1`: the “% Inhibition @ 10 uM” value is -4.13%.

In the case of `N#Cc1c(C(F)(F)F)cc(-c2cccs2)nc1SCC(=O)Nc1nccs1`, the “% Inhibition @ 10 uM” value worked out at 0.121%.

`CCOc1ccc(N2C(=O)CC(NCCc3cccc(F)c3)C2=O)cc1` (centres unmarked): the “% Inhibition @ 10 uM” value is given as -0.48%.

For the compound `CCOC(=O)C1=C(C)OC(N)=C(C#N)C1c1ccc2ccccc2c1` (centres unmarked), the “% Inhibition @ 10 uM” value is recorded as -4.94%.

As for `COc1ccccc1OCCn1c(SCC(=O)O)nc2ccccc21`, the “% Inhibition @ 10 uM” value is given as -13.3%.

As to `Clc1ccccc1-c1nnc(-c2cccc(Cl)c2Cl)o1`, the “% Inhibition @ 10 uM” value is reported as 11%.

As for `O=C(NCCc1ccccc1)C1CCN(S(=O)(=O)c2ccc(Br)cc2)CC1`, the “% Inhibition @ 10 uM” value stood at 0.583%.

Consider `CCN1/C(=C\C(=O)c2ccco2)Sc2ccccc21`, for which the “% Inhibition @ 10 uM” value was -4.35%.

In the case of `CCOC(=O)C1=C(NC(=O)c2ccc(C(C)(C)C)cc2)S/C(=C\c2ccc(C(=O)OC)cc2)C1=O`, the “% Inhibition @ 10 uM” value is listed as -6.42%.

Take `Cc1cccc(N2C(=O)c3cccc4c(Cl)ccc(c34)C2=O)n1`: the “% Inhibition @ 10 uM” value is -3.04%.

On to `Cc1ccc(C(=O)Nc2sc3c(c2C(=O)N(C)C)CCCCC3)cc1`, for which the “% Inhibition @ 10 uM” value turned out to be 4.05%.

As to `OCCSc1nnc(COc2ccc(Br)cc2)n1Cc1ccccc1`, the “% Inhibition @ 10 uM” value is -4.91%.

`CCCN1CC2=C(OC(N)=C(C#N)C2c2ccc(OC)cc2)/C(=C/c2ccc(OC)cc2)C1` (centres unmarked): the “% Inhibition @ 10 uM” value is listed as 47.6%.

`COC(=O)/C(C#N)=C/c1c(Oc2cccc(C)c2C)nc2c(C)cccn2c1=O`: the “% Inhibition @ 10 uM” value is given as -1.43%.

The values above are taken from publication PMC6919601, “Identification of Plasmodium dipeptidyl aminopeptidase allosteric inhibitors by high throughput screening” (PLoS ONE, 2019).
